Laboratory results published in PMC4336329 (PLoS ONE, 2015).
Hit rate of the full screen: of about 310,000 compounds, about 14,000 (4.5%) showed an effect of 50% or more. Effects have a minus sign here. The list shows a part of the results.

What follows are compounds tested against human ether-à-go-go-related gene (hERG) potassium channel (human, UniProt Q12809) (assay: primary screen, population patch clamp on CHO cells stably expressing hERG).
Experimental: Briefly, Chinese hamster ovary (CHO) cells stably expressing the hERG channel were dislodged from tissue culture flasks and dispensed into PPC plates. […] During the recording, background leak currents were estimated by a 100 ms step to -80 mV from an initial holding potential of -70 mV and subtracted from the subsequent current measurement. The campaign was conducted in two phases using slight differences in recording protocol. In the first phase, the initial voltage pulse used a 100 ms step to -30 mV from a holding potential of -70 mV, a 2 s conditioning step to +25 mV, and a 2 s test step to -30 mV. During the second phase of the screen, the potential during the conditioning step was raised to +45 mV. In both phases of the campaign, a secondary voltage pulse was applied using the same parameters as the second phase initial pulse. The initial and secondary pulses were applied in the absence of compound, and upon application of 1 μM and 10 μM test concentrations. […]
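Note: peak tail current of the secondary pulse compared with the same well before compound.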

human ether-à-go-go-related gene (hERG) potassium channel, sequence (Q12809 whole entry, looked up): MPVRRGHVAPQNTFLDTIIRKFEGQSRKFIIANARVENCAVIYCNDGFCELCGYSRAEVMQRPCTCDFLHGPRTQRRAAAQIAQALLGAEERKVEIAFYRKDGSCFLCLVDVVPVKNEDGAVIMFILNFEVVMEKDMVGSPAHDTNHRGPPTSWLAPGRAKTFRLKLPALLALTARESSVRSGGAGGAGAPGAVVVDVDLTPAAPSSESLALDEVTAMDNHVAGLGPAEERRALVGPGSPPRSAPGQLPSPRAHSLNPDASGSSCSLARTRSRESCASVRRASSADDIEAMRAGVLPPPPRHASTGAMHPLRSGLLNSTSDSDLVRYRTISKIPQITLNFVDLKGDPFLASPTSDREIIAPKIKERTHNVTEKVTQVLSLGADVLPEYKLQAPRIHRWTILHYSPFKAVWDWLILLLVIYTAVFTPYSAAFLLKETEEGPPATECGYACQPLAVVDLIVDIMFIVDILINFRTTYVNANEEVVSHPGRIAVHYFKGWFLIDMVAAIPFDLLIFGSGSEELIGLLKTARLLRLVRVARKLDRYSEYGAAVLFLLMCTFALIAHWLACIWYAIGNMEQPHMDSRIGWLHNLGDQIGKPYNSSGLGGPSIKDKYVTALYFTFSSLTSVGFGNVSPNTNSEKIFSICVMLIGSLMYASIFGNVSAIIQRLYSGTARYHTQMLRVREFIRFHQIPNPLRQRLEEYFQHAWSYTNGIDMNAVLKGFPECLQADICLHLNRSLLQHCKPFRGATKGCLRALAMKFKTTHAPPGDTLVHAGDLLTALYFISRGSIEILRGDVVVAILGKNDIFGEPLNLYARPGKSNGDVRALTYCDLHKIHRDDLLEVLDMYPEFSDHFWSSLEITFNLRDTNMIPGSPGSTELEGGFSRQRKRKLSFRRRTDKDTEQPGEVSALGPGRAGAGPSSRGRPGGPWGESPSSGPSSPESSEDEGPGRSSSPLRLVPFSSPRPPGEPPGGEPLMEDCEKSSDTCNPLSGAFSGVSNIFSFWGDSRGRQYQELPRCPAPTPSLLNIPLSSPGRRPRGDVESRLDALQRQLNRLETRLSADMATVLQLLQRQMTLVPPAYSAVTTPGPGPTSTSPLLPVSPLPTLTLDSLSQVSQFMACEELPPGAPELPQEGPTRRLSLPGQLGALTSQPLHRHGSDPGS

Row | SMILES | hERG current change (%, negative = inhibition) at 10uM
1 | CCOC(=O)c1c(C2CC2)csc1NC(=O)CSCc1c(C)noc1C | 5.31%
2 | CC(=O)N(Cc1cccnc1)Cc1cc2ccccc2[nH]c1=O | 3.63%
3 | CCOc1ccc(NS(=O)(=O)c2ccc(C(=O)N3CC(C)OC(C)C3)cc2)cc1 (stereo not shown) | 6.77%
4 | CC#CCN1c2ccccc2[C@]23C[C@@H](C(=O)OC)N(C(=O)OCC)C2=NC(C(=O)OC)=C(C(=O)OC)[C@H]13 | 3.42%
5 | O=C(NCC1OCCCN1S(=O)(=O)c1cc(F)ccc1F)C(=O)NC1CCCCC1 (stereo not shown) | -3.8%
6 | O=C(CCN1CCN(c2ccccn2)CC1)Nc1ccc(F)cc1 | -42.5%
7 | COc1ccc2nc(SCC(=O)Nc3cc(C)on3)[nH]c2c1 | -6.41%
8 | COc1cc(C(=O)N2CCC3(CC2)NCCc2[nH]cnc23)cc(OC)c1OC | 22.9%
9 | CN(Cc1ccccc1)C(=O)COC(=O)c1ccc2c(c1)OCO2 | -5.37%
10 | O=S(=O)(Cc1ccccc1)Cc1cnc(Cl)s1 | 0.628%
11 | CCCCCCCC/C=C\CCCCCCCC(=O)NCCO | 11.7%
12 | COCCN(C(=O)c1ccccc1OC1CCN(S(C)(=O)=O)CC1)C(C)C | 17.8%
13 | Clc1ccc(-c2cc3ccccc3nc2N2CCCC2)cc1 | 3.51%
14 | COc1ccc(C(=O)N2CCN(S(=O)(=O)c3ccc(F)cc3)CC2)cc1OC | 10.9%
15 | CC(=O)NC(CCS(C)(=O)=O)C(=O)Nc1cccc(Cl)c1Cl (stereo not shown) | 22.6%
16 | O=C(Nc1ccc(S(=O)(=O)N2CCOCC2)cc1)c1ccc2ncsc2c1 | -8.88%
17 | COc1ccc(-c2cc(-c3n[nH]c(=S)n3-c3cccc4ccccc34)[nH]n2)cc1 | 22%
18 | CCNC(=O)COC(=O)C1CCC(=O)N(c2ccc(OC)cc2)C1c1ccc(OC)cc1 (stereo not shown) | -32.2%
19 | CCOC(=O)N1CCN(S(=O)(=O)c2ccc(C)cc2)C1 | 9.88%
20 | Cc1ccc(OCc2nnc(SC(C)C(=O)O)n2Cc2ccccc2)cc1 (stereo not shown) | 11.4%
21 | Cc1ccc(CNC(=O)CSCc2ccccc2)cc1 | 25.9%
22 | Br.C=CCn1c(C)csc1=Nc1ccccc1C | 4.02%

Row | SMILES | hERG current change (%, negative = inhibition) at 10uM
23 | COc1ccccc1-n1c(O)c(C=NCCCn2ccnc2)c(=O)[nH]c1=O | 9.22%
24 | COc1cc(C(=O)OCc2ccc(C)cc2)cc(NC(=O)c2cccs2)c1OC | 1.71%
25 | CCN1CCN(c2ccc(S(=O)(=O)N3CCCCC3)cc2NC(=O)c2sccc2C)CC1 | -71.4%
26 | COc1ccc(C2=NS(=O)(=O)N(C)C(C(=O)Nc3ccc(C(C)=O)cc3)=C2)cc1OC | 12.8%
27 | CCCN1CCC(NC(=O)Nc2ccc(F)cc2F)CC1 | 4.33%
28 | O=C(O)c1nn(CC(=O)N2CCC(Cc3ccccc3)CC2)c(=O)c2ccccc12 | -8.78%
29 | COc1cc(/C=C2/N=C(C3CCCCC3)OC2=O)cc(OC)c1OC | -17.5%
30 | COc1ccc(/C=C/C(=O)Nc2cccc(S(=O)(=O)NC3=NCCCCC3)c2)c(OC)c1 | -6.07%
31 | O=c1[nH]c(O)c(C=Nc2cccc(F)c2)c(=O)[nH]1 | 18.1%
32 | Cc1ccc(N2C(=O)c3ccccc3C2C(=O)c2ccc(O)cc2O)cc1 (stereo not shown) | -10.5%
33 | CN(CCc1ccccn1)C(=O)CN(C)S(=O)(=O)c1ccc2c(c1)c(=O)n(C)c(=O)n2C | 22.7%
34 | CCOc1cc(N2CCOCC2)c(OCC)cc1NC(=O)c1ccccc1C | -2.01%
35 | Cc1ccc(S(=O)(=O)N2CCc3c2cc([N+](=O)[O-])cc3[N+](=O)[O-])cc1 | 13.6%
36 | Cc1ccc(O)c(C2=Nc3ccccc3N=C(c3ccc([N+](=O)[O-])cc3)C2)c1 | 14.4%
37 | O=C(CSc1nnc2c(n1)[nH]c1ccccc12)Nc1nncs1 | 19.4%
38 | COc1ccccc1-c1noc(CSc2nc(N)cc(=O)[nH]2)n1 | 13.4%
39 | COc1ccc(N(CC(=O)Nc2ccccc2OC)S(=O)(=O)c2ccc(OC)c(OC)c2)cc1 | -1.57%
40 | C=CCN1CN(S(=O)(=O)c2cccc(Cl)c2)c2nc3ccccc3nc21 | -1.97%
41 | Cc1ccc(O)c(C(CC(=O)N2CCCC2)c2ccccc2)c1 (stereo not shown) | -18.9%
42 | O=C(COc1ncnc2sccc12)N1CCN(c2ccccc2)CC1.O=C(O)C(=O)O | -32.3%
43 | Cc1ccc2c(c1)SC1=NC(c3ccccc3)(C(F)(F)F)NC(=O)N12 (stereo not shown) | 2.41%
44 | COC(=O)C1=C(C)OC(N)=C(C#N)C1c1ccco1 (stereo not shown) | 18.6%

Row | SMILES | hERG current change (%, negative = inhibition) at 10uM
45 | Cc1cc(C)c2cc(C#N)c(SCC(=O)NCC3CCCO3)nc2c1 (stereo not shown) | -2.47%
46 | COc1ccc2c(c1)cc1n2CCN=C1NCCO.Cl | -10.2%
47 | COc1ccc(C(=O)OCCN2C(=O)c3ccccc3C2=O)cc1 | -5.4%
48 | COc1ccc(Cn2nnnc2C(c2ccc(N(C)C)cc2)N2CCC(C)CC2)cc1 (stereo not shown) | -2.19%
49 | CCCCCN(C(=O)CCC(=O)OCC(=O)N(C)c1ccccc1)c1c(N)n(CCCC)c(=O)[nH]c1=O | 7.04%
50 | O=C(NC(CO)Cc1ccccc1)c1ccccc1 (stereo not shown) | -10.5%
51 | COc1ccc(/C=C/C(=O)Nc2ccccc2C(F)(F)F)cc1 | 7.8%
52 | Cc1cccc(C)c1OC(=O)CSc1nnc(-c2ccccc2O)o1 | 0.915%
53 | O=Cc1ccc(O)c(O)c1 | 15.1%
54 | CCCN1Cc2cccc(C(=O)NCc3cccs3)c2C1=O | -18.2%
55 | O=C(CCCn1c(=O)c2ccccc2n(Cc2ccccc2)c1=O)NCc1ccco1 | -7.47%
56 | Cc1ncc(CN2CCC(n3nccc3NC(=O)c3ccccc3)CC2)s1 | -19%
57 | O=C1CCCCN1CCC(=O)N1CCCC(Nc2ccc(F)c(F)c2)C1 (stereo not shown) | 3.89%
58 | CCOc1cc2c(C)cc(=O)oc2cc1Cl | -10.7%
59 | COc1ccc([N+](=O)[O-])cc1-c1nc2ccccc2nc1-c1ccccc1 | 6.31%
60 | Cc1cc(=O)oc(C)c1C(=O)OCC(=O)c1ccc(Cl)cc1 | -19.3%
61 | COC(=O)c1cc2ccsc2n1CC(=O)N(C)c1ccccc1 | -9.6%
62 | Cc1ccc(NC(=O)CCC(=O)OCCCC(F)(F)C(F)(F)F)cc1 | -7.94%
63 | CC1=C(C(=O)Nc2cccc(C(=O)NC(C)C)c2)SCCO1 | 17.6%
64 | O=C(CN1CCCC1)Nc1ccc(-c2nc3cc(NC(=O)CN4CCCC4)ccc3o2)cc1 | 10.9%
65 | CCOC(=O)CNC(=O)CSc1nc2sc(C)c(C)c2c(=O)n1C | 7.03%
66 | COc1ccccc1OC(C)C(=O)Nc1ccc(S(=O)(=O)Nc2nccs2)cc1 (stereo not shown) | -29.2%

Row | SMILES | hERG current change (%, negative = inhibition) at 10uM
67 | CCn1c(SCC(=O)Nc2ncc(C(F)(F)F)cc2Cl)nnc1-c1cccc(C)c1 | -69.9%
68 | COc1ccc(OCc2cccc(C(=O)O)c2)cc1 | 13.1%
69 | Cc1cc(C(=O)N/N=C/c2ccc(O)c([N+](=O)[O-])c2)n[nH]1 | -7%
70 | O=C(CCNC(=O)Cn1ccc2ccccc2c1=O)NCc1ccc(F)cc1Cl | 10.7%
71 | O=C(Cc1cccc2ccccc12)NN1C(=O)C2C(C1=O)C1C=CC2C12CC2 (stereo not shown) | -16.9%
72 | COc1ccc(/C=C2\C(=N)N3N=C(CC(=O)N4CCOCC4)SC3=NC2=O)cc1 | 13%
73 | O=C(OCC(=O)C12CC3CC(CC(C3)C1)C2)c1cccnc1 | -1.49%
74 | CCc1ccc2c(CN3CCc4cc(OC)c(OC)cc4C3)cc(=O)oc2c1 | -66%
75 | COc1ccc(/C=N/OCC(=O)Nc2ccc3c(c2)OCO3)c(OC)c1 | -11%
76 | COc1cccc(CNc2ccc3c(c2)nc(C)n3C)c1OC | -9.08%
77 | O=C(NCCn1cccn1)C1CCC(=O)N(CC2CCCCC2)C1 (stereo not shown) | 10.7%
78 | Cc1ccc(CN(CC(=O)N/N=C/c2ccccc2[N+](=O)[O-])S(=O)(=O)c2ccc(C)cc2)cc1 | -1.83%
79 | CC(C)CN(C(=O)C1CC1)c1c(N)n(Cc2ccccc2)c(=O)[nH]c1=O | 21.2%
80 | COc1ccccc1NC(=O)c1cc2ccccc2o1 | 25.9%
81 | Cc1ccc(C(C)C)c(OCC(=O)NNC(=O)CC2OC(=O)c3ccccc32)c1 (stereo not shown) | -22.7%
82 | O=C(O)Cc1csc(Nc2cccc(Cl)c2)n1 | 3.98%
83 | O=C(c1ccc(OC2CCN(CCc3ccccc3)CC2)cc1)N1CCCC(CO)C1 (stereo not shown) | -12.4%
84 | COc1ccc(NC(=O)C2CCCO2)cc1Cl (stereo not shown) | 4.52%
85 | C1CCCCCC(NCCN2CCNCC2)CCCCC1 | 12.1%
86 | CCCc1cc(-c2nc(N)ncc2-c2ccc3c(c2)OCCCO3)c(O)cc1OC | -2.67%
87 | Cc1ccc(NC(=O)COC(=O)COc2cccc3c2OC(C)(C)C3)c(C)c1 | 19.8%
88 | CCOC(=O)N/N=C(/c1ccccc1)C1CCCCC1 | 15.1%
